The values below come from patent US7592316B2, “Peptides as NS3-serine protease inhibitors of hepatitis C virus” (Schering Corporation, priority 2000, dated 2009).

The term Ki denotes a dissociation constant, usually derived from enzyme kinetics or from competition with a known ligand.

Structures are written as SMILES. *1 amine or outer side, *2 acyl side, *3 side chain or, on linkers, in order; H or OH if unused. Where a SMILES comes first, the peptide text is derived from it. [ ]: non-standard residue; d: D form. The star is where a group is joined. ξ: configuration not given here. Phenylacetyl(2,3,4,5,6-F5) = O=C(Cc1c(F)c(F)c(F)c(F)c1F)*; Pro(3R,4S-CMe2) = CC1(C)[C@@H]2[C@@H](C(=O)O)NC[C@@H]21; ξ(3-Amino-2-oxopentanoyl) = CCC(N[*:1])C(=O)C(=O)[*:2]; Pro(3S,4R-CMe2) = CC1(C)[C@H]2[C@@H](C(=O)O)NC[C@H]21; Phenylacetyl(3-CH2COOH) = O=C(O)Cc1cccc(CC(=O)*)c1; Isobutoxycarbonyl(1S-Me) = CC(C)[C@H](C)OC(=O)*; Phenylacetyl(3-CF3) = O=C(Cc1cccc(C(F)(F)F)c1)*; ξLeu(ψCOCO) = CC(C)CC(N[*:1])C(=O)C(=O)[*:2]; NH(1-Adamantyl) = C1C2CC3CC1CC(N*)(C2)C3; Phenylacetyl(3-Cl) = O=C(Cc1cccc(Cl)c1)*; Pro(4,4-Me2) = CC1(C)CN[C@H](C(=O)O)C1; ξPhg(3-Cl) = NC(C(=O)O)c1cccc(Cl)c1; Pentanoyl(2-Pr) = CCCC(CCC)C(=O)*; X4 = CCCCC(N[*:1])C(=O)C(=O)[*:2]; Hyp = O=C(O)[C@@H]1C[C@@H](O)CN1; X2 = CCCC(N[*:1])C(=O)C(=O)[*:2]; CH2CO2tBu = CC(C)(C)OC(=O)C*; Chg = N[C@H](C(=O)O)C1CCCCC1; Phg = N[C@H](C(=O)O)c1ccccc1; Tle = CC(C)(C)[C@H](N)C(=O)O; ξChg = NC(C(=O)O)C1CCCCC1; Carboxymethyl = O=C(O)C*; NHcHex = C1CCC(N*)CC1; ξNle = CCCCC(N)C(=O)O; CO = O=C([*:1])[*:2]; NHPh = c1ccc(N*)cc1; Bn = c1ccc(C*)cc1; tBu = CC(C)(C)*

The first test deals with HCV NS3/NS4A protease (strain 1a) (Hepatitis C virus genotype 1a, UniProt P27958). Description: biochemical. As to conditions: Compounds prepared by Solid Phase Synthesis, Table 3; read-out: Ki* CLASS.
As to `CCCCC(NC(=O)CNC(=O)C(=O)C(CCC)NC(=O)[C@@H]1C[C@@H](OCC(=O)OC(C)(C)C)CN1C(=O)C(NC(=O)C(CCC)CCC)C1CCCCC1)C(N)=O` (stereo partly shown) ({Pentanoyl(2-Pr)}-[ξChg][Hyp](CH2CO2tBu)[X2]G[ξNle]-NH2), the inhibition constant Ki was greater than 1 µM.
Take `CCCCC(NC(=O)CNC(=O)C(=O)C(CCC)NC(=O)[C@@H]1C[C@@H](OCC(=O)O)CN1C(=O)C(NC(=O)C(CCC)CCC)C1CCCCC1)C(N)=O` (stereo partly shown) ({Pentanoyl(2-Pr)}-[ξChg][Hyp](Carboxymethyl)[X2]G[ξNle]-NH2): the inhibition constant (Ki) was greater than 1 µM.
Same read-out and setting: the result for `CCCCC(NC(=O)CNC(=O)C(=O)C(CCC)NC(=O)[C@@H]1C[C@@H](OC(C)(C)C)CN1C(=O)C(NC(=O)C(CCC)CCC)C1CCCCC1)C(N)=O` (stereo partly shown) ({Pentanoyl(2-Pr)}-[ξChg][Hyp](tBu)[X2]G[ξNle]-NH2) reads 0.101 to 1 µM; that for `CCCC(NC(=O)[C@@H]1C[C@@H](OC(C)(C)C)CN1C(=O)[C@@H](NC(=O)Cc1c(F)c(F)c(F)c(F)c1F)C1CCCCC1)C(=O)C(=O)NCC(=O)NC(C(N)=O)c1cccc(Cl)c1` (stereo partly shown) ({Phenylacetyl(2,3,4,5,6-F5)}-[Chg][Hyp](tBu)[X2]G[ξPhg(3-Cl)]-NH2), 0.101 to 1 µM; that for `CC(C)CC(NC(=O)[C@@H]1C[C@@H](OC(C)(C)C)CN1C(=O)[C@@H](NC(=O)Cc1c(F)c(F)c(F)c(F)c1F)C1CCCCC1)C(=O)C(=O)NCC(=O)N[C@H](C(N)=O)c1ccccc1` (stereo partly shown) ({Phenylacetyl(2,3,4,5,6-F5)}-[Chg][Hyp](tBu)[ξLeu(ψCOCO)]G[Phg]-NH2), greater than 1 µM.
On the same count and under the same terms, the result for `CCCCC(NC(=O)CNC(=O)C(=O)C(CCC)NC(=O)[C@@H]1C[C@@H](OC(C)(C)C)CN1C(=O)C(NC(=O)Cc1cccc(C(F)(F)F)c1)C1CCCCC1)C(N)=O` (stereo partly shown) ({Phenylacetyl(3-CF3)}-[ξChg][Hyp](tBu)[X2]G[ξNle]-NH2) reads 0.101 to 1 µM.
The same measure, in the same setting: the result for `CCCC(NC(=O)[C@@H]1C[C@@H](OC(C)(C)C)CN1C(=O)[C@@H](NC(=O)Cc1cccc(CC(=O)O)c1)C1CCCCC1)C(=O)C(=O)NCC(=O)N[C@H](C(N)=O)c1ccccc1` (stereo partly shown) ({Phenylacetyl(3-CH2COOH)}-[Chg][Hyp](tBu)[X2]G[Phg]-NH2) reads greater than 1 µM.
Turning to `CCC(NC(=O)[C@@H]1C[C@@H](OC(C)(C)C)CN1C(=O)[C@@H](NC(=O)Cc1cccc(CC(=O)O)c1)C1CCCCC1)C(=O)C(=O)NCC(=O)N[C@H](C(N)=O)c1ccccc1` (stereo partly shown) ({Phenylacetyl(3-CH2COOH)}-[Chg][Hyp](tBu)[ξ(3-Amino-2-oxopentanoyl)]G[Phg]-NH2), the inhibition constant (Ki) fell in the range of 0.101 to 1 µM.
Turning to `CCCCC(NC(=O)C(CCCC)NC(=O)CNC(=O)C(=O)C(CCC)NC(=O)[C@@H]1C[C@@H](OCc2ccccc2)CN1C(=O)C(NC(=O)Cc1cccc(CC(=O)O)c1)C1CCCCC1)C(N)=O` (stereo partly shown) ({Phenylacetyl(3-CH2COOH)}-[ξChg][Hyp](Bn)[X2]G[ξNle][ξNle]-NH2), the Ki is 0.101 to 1 µM.
Still for that read-out and setting: the result for `CCCCC(NC(=O)CNC(=O)C(=O)C(CCC)NC(=O)[C@@H]1C[C@@H](OCC(=O)OC(C)(C)C)CN1C(=O)C(NC(=O)Cc1cccc(Cl)c1)C1CCCCC1)C(N)=O` (stereo partly shown) ({Phenylacetyl(3-Cl)}-[ξChg][Hyp](CH2CO2tBu)[X2]G[ξNle]-NH2) reads greater than 1 µM.

Still in this test, the particulars now being: Table 5; HCV NS3/NS4A protease, spectrophotometric assay, 30° C., pH 6.5; read-out: Ki* Range.
Regarding `CCCCC(NC(=O)[C@@H]1CC(C)(C)CN1C(=O)[C@@H](NC(=O)O[C@@H](C)C(C)C)C(C)(C)C)C(=O)C(=O)NCC(=O)N[C@H](C(=O)N(C)C)c1ccccc1` (stereo partly drawn) ({Isobutoxycarbonyl(1S-Me)}-[Tle][Pro(4,4-Me2)][X4]G[Phg]-NMe2), the inhibitory constant (Ki) was in the range of 0.001 to 0.1 µM.
With `CC(C)CC(NC(=O)[C@@H]1CC(C)(C)CN1C(=O)[C@@H](NC(=O)O[C@@H](C)C(C)C)C(C)(C)C)C(=O)C(=O)NCC(=O)N[C@H](C(=O)N(C)C)c1ccccc1` (stereo partly drawn) ({Isobutoxycarbonyl(1S-Me)}-[Tle][Pro(4,4-Me2)][ξLeu(ψCOCO)]G[Phg]-NMe2), the Ki fell in the range of 0.001 to 0.1 µM.
Consider `CCCC(NC(=O)[C@@H]1[C@@H]2[C@H](CN1C(=O)[C@@H](NC(=O)NC13CC4CC(CC(C4)C1)C3)C(C)(C)C)C2(C)C)C(=O)C(=O)NCC(=O)N[C@H](C(=O)N(C)C)c1ccccc1` (stereo partly drawn) ({NH(1-Adamantyl)-CO}-[Tle][Pro(3R,4S-CMe2)][X2]G[Phg]-NMe2), for which the inhibitory constant (Ki) was 0.001 to 0.1 µM.
Same read-out and setting: the figure for `CCCCC(NC(=O)[C@@H]1[C@H]2[C@@H](CN1C(=O)[C@@H](NC(=O)Nc1ccccc1)C(C)(C)C)C2(C)C)C(=O)C(=O)NCC(=O)N[C@H](C(=O)N(C)C)c1ccccc1` (stereo partly drawn) ({NHPh-CO}-[Tle][Pro(3S,4R-CMe2)][X4]G[Phg]-NMe2) is 0.001 to 0.1 µM; for `CCCC(NC(=O)[C@@H]1[C@@H]2[C@H](CN1C(=O)[C@@H](NC(=O)NC1CCCCC1)C(C)(C)C)C2(C)C)C(=O)C(=O)NCC(=O)N[C@H](C(=O)N(C)C)c1ccccc1` (stereo partly drawn) ({NHcHex-CO}-[Tle][Pro(3R,4S-CMe2)][X2]G[Phg]-NMe2) it is 0.001 to 0.1 µM.
The same measure, in the same setting: the figure for `CCCCC(NC(=O)[C@@H]1[C@H]2[C@@H](CN1C(=O)[C@@H](NC(=O)NC1CCCCC1)C(C)(C)C)C2(C)C)C(=O)C(=O)NCC(=O)N[C@H](C(=O)N(C)C)c1ccccc1` (stereo partly drawn) ({NHcHex-CO}-[Tle][Pro(3S,4R-CMe2)][X4]G[Phg]-NMe2) is 0.001 to 0.1 µM.
